{"source": "paper PMC4336329", "about": "(PLoS ONE, 2015)", "note": "The campaign covered roughly 310,000 compounds. About 14,000 (4.5%) showed an effect of 50% or more. The effect is printed as a negative number. This is one part of the list.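 Also: peak tail current of the secondary pulse compared with the same well before compound.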"}
{"target": "human ether-à-go-go-related gene (hERG) potassium channel (human, UniProt Q12809)", "sequence (Q12809 whole entry, looked up)": "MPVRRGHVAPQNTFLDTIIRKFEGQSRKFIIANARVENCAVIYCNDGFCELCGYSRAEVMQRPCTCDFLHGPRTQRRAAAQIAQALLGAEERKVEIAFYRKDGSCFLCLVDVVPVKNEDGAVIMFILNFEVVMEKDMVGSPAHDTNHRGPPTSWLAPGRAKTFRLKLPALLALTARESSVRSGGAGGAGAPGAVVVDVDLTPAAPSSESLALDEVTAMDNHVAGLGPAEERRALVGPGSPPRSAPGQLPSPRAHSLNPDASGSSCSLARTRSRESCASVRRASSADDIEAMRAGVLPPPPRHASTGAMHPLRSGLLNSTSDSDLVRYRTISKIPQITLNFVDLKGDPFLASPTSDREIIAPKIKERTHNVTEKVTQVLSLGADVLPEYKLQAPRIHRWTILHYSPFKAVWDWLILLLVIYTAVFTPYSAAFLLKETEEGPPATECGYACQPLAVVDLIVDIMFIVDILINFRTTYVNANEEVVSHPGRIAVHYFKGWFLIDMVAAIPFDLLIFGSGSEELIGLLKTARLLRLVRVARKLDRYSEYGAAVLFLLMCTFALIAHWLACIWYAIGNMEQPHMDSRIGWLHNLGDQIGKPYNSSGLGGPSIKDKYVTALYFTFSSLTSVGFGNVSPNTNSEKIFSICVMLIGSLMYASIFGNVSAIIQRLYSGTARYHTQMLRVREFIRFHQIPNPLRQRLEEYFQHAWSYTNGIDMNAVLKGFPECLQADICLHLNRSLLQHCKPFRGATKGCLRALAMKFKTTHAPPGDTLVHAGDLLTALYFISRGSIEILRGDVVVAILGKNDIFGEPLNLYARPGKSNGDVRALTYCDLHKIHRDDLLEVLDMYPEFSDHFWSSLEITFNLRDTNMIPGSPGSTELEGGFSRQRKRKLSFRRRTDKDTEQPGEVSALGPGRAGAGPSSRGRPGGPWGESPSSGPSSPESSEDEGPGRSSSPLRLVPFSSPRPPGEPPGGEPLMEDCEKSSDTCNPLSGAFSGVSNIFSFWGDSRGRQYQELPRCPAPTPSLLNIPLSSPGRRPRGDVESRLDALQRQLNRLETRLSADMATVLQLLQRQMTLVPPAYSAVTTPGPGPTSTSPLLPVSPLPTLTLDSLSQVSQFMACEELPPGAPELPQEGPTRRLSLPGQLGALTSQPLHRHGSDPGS", "assay": "primary screen, population patch clamp on CHO cells stably expressing hERG", "units": {"hERG current change (%, negative = inhibition) at 10uM": "%"}}
{"smiles": "Cc1cc(N2CCC(C(=O)Nc3ccc(F)cc3)CC2)nc(-c2ccccc2)n1", "hERG current change (%, negative = inhibition) at 10uM": -32.9}
{"smiles": "CCOc1ccc(Cl)cc1C1=CC(=O)C[C@H](c2ccc(OC)cc2)C1", "hERG current change (%, negative = inhibition) at 10uM": -5.35}
{"smiles": "CCN(Cc1cnn(C)c1)Cc1nc(C(c2ccccc2)c2ccccc2)no1", "hERG current change (%, negative = inhibition) at 10uM": -18.2}
{"smiles": "CCN(CC)C1=N/C(=C\\c2ccc(OC)cc2)C(=O)N1c1ccccc1", "hERG current change (%, negative = inhibition) at 10uM": -10.5}
{"smiles": "CN(CC(O)COc1ccccc1F)C1CCCCC1.Cl", "note": "(centres unmarked)", "hERG current change (%, negative = inhibition) at 10uM": 2.08}
{"smiles": "CC(C)(CNc1ccc([N+](=O)[O-])cc1C#N)N1CCOCC1", "hERG current change (%, negative = inhibition) at 10uM": -30.9}
{"smiles": "Cn1c(=O)c2c(nc(SCc3ccc(F)cc3)n2C)n(C)c1=O", "hERG current change (%, negative = inhibition) at 10uM": 1.9}
{"smiles": "COC(=O)c1cccc(Cn2nnc3ccccc3c2=O)c1", "hERG current change (%, negative = inhibition) at 10uM": -4.39}
{"smiles": "COc1ccc(C2c3c(oc4ccccc4c3=O)C(=O)N2CCN2CCOCC2)cc1OC", "note": "(centres unmarked)", "hERG current change (%, negative = inhibition) at 10uM": 0.149}
{"smiles": "COC(=O)CNc1c(-c2ccccc2)nc2ccc(Br)cn12", "hERG current change (%, negative = inhibition) at 10uM": -37.9}
{"smiles": "COc1ccc(NC(=O)C(=O)N/N=C/c2cccnc2)c(OC)c1", "hERG current change (%, negative = inhibition) at 10uM": 21.3}
{"smiles": "COc1ccc(CNC(=O)C(C)OC(=O)c2cccn2C)cc1", "note": "(centres unmarked)", "hERG current change (%, negative = inhibition) at 10uM": -4.51}
{"smiles": "CCN(CC(=O)NCc1cccs1)C(=O)COc1ccc(C(N)=O)cc1", "hERG current change (%, negative = inhibition) at 10uM": 6.69}
{"smiles": "O=C(NCCCCc1ccccc1)c1ccc(Br)o1", "hERG current change (%, negative = inhibition) at 10uM": -32.7}
{"smiles": "Cc1nc2ccccc2nc1OCC(=O)N1CCN(c2ccccc2)CC1", "hERG current change (%, negative = inhibition) at 10uM": -4.75}
{"smiles": "COc1ccc(CCN2CC(C(=O)NCc3nc(C)c(C)s3)CCC2=O)cc1", "note": "(centres unmarked)", "hERG current change (%, negative = inhibition) at 10uM": -32.5}
{"smiles": "CC(C)COCC1CC2(CC(C)C(=O)CC2=O)C(=O)O1", "note": "(centres unmarked)", "hERG current change (%, negative = inhibition) at 10uM": -2.3}
{"smiles": "Oc1ccc(-c2cn3c(n2)SCC3)cc1", "hERG current change (%, negative = inhibition) at 10uM": 6.44}
{"smiles": "O=C1c2cnc3nc(SCc4ccc(Cl)cc4)nn3c2CC2c3ccccc3CCN12", "note": "(centres unmarked)", "hERG current change (%, negative = inhibition) at 10uM": -4.21}
{"smiles": "COc1cc(-c2nc(CN3CCCCC3CCNC(C)=O)c(C)o2)ccc1F", "note": "(centres unmarked)", "hERG current change (%, negative = inhibition) at 10uM": -66.6}
{"smiles": "Cn1cnnc1SCC(=O)Nc1ccc(N2CCOCC2)cc1", "hERG current change (%, negative = inhibition) at 10uM": 3.07}
{"smiles": "CN(CCO)C(=O)c1c(NC(=O)c2ccccc2)sc2c1CCCC2", "hERG current change (%, negative = inhibition) at 10uM": 1.64}
{"smiles": "c1ccc(CSc2nnc(-c3ccco3)n2Cc2ccccc2)cc1", "hERG current change (%, negative = inhibition) at 10uM": -46}
{"smiles": "CN1CCN(C(=O)CN2C(=O)NC(C)(c3ccc4ccccc4c3)C2=O)CC1", "note": "(centres unmarked)", "hERG current change (%, negative = inhibition) at 10uM": -3.52}
{"smiles": "CCCCn1c(=O)[nH]c2nc3cc(N)ccc3nc2c1=O", "hERG current change (%, negative = inhibition) at 10uM": -13.5}
{"smiles": "Cn1c(/C=C/c2ccccc2)nc2ccccc2c1=O", "hERG current change (%, negative = inhibition) at 10uM": 15.1}
{"smiles": "Oc1ccccc1C(=S)N1CCN(C(=S)c2ccccc2O)CC1", "hERG current change (%, negative = inhibition) at 10uM": 18.4}
{"smiles": "CN1CCN(S(=O)(=O)c2ccc(N3CCN(S(=O)(=O)/C=C/c4ccccc4)CC3)nc2)CC1", "hERG current change (%, negative = inhibition) at 10uM": 10.5}
{"smiles": "CC(=O)C1=C(O)C(=O)N(CCC(=O)O)C1c1cccc(F)c1", "note": "(centres unmarked)", "hERG current change (%, negative = inhibition) at 10uM": 11.1}
{"smiles": "Cc1nnc(NC(=O)C2CCN(c3cnccn3)CC2)s1", "hERG current change (%, negative = inhibition) at 10uM": 5.76}
{"smiles": "COc1ccccc1N(C)S(=O)(=O)c1ccc(Cl)c(C(=O)NCCCN2CCOCC2)c1", "hERG current change (%, negative = inhibition) at 10uM": -4.75}
{"smiles": "Cc1ccc(-c2csc(-c3cc(C)on3)n2)cc1", "hERG current change (%, negative = inhibition) at 10uM": 23.2}
{"smiles": "O=C(N/N=C/c1ccc2c(c1)OCO2)c1ccc(COCC(F)(F)C(F)F)cc1", "hERG current change (%, negative = inhibition) at 10uM": 17.3}
{"smiles": "CC(=O)Nc1ccc(-c2cc(-c3ccc(NC(C)=O)cc3)nc(-c3ccccc3)n2)cc1", "hERG current change (%, negative = inhibition) at 10uM": 1.34}
{"smiles": "Cc1c(C(=O)N2CCOCC2)sc2ncn(CC(=O)N3CCC(C)CC3)c(=O)c12", "hERG current change (%, negative = inhibition) at 10uM": -7.86}
{"smiles": "CCCCNCc1cc(OCC)c(OCC)cc1Br.Cl", "hERG current change (%, negative = inhibition) at 10uM": 24.1}
{"smiles": "COC(=O)c1ccc(-n2c(C)cc(C(=O)COC(=O)CNS(=O)(=O)c3ccc(C)cc3)c2C)cc1", "hERG current change (%, negative = inhibition) at 10uM": -26.7}
{"smiles": "COc1ccc(C(=O)NC(=S)Nc2ccc3c(c2)Cc2ccccc2-3)cc1", "hERG current change (%, negative = inhibition) at 10uM": 17}
{"smiles": "O=C(c1cccc2ccccc12)N1CCN(c2ccccc2F)CC1", "hERG current change (%, negative = inhibition) at 10uM": -9.72}
{"smiles": "O=C1OCc2cccc([N+](=O)[O-])c21", "hERG current change (%, negative = inhibition) at 10uM": 4.68}
{"smiles": "O=C(CN1CCCC1)Nc1ccc([N+](=O)[O-])cc1", "hERG current change (%, negative = inhibition) at 10uM": -22.6}
{"smiles": "COc1ccc(C(=O)Nc2cccc(C(=O)N3CCCCC3)c2)cc1", "hERG current change (%, negative = inhibition) at 10uM": 6}
{"smiles": "Cc1ccc(C(=O)Nc2ccc3c(c2)OCO3)cc1Cl", "hERG current change (%, negative = inhibition) at 10uM": 19.7}
{"smiles": "COc1nc(NCc2cccnc2)nc(OC)n1", "hERG current change (%, negative = inhibition) at 10uM": 8.02}
